# Test results as given in the supplement of paper PMC7826260.
# The other results are listed elsewhere or left out. Each Rep nickase domain was tested in vitro on the same pool of single strands (1 h at 37 °C, 3 µM enzyme); the outer parts of the 90-letter strands are left off. Values are log2 of uncut reads against the no-enzyme pool; uncut sequences lie near 0, cut ones below; no hit call is given. The scaling is to total reads; values above 0 arise when much of the pool is cut.
# Tested on: T1, Rep nickase domain of Muscovy duck circovirus
# T1 sequence (protein, residues 1-111, tag omitted): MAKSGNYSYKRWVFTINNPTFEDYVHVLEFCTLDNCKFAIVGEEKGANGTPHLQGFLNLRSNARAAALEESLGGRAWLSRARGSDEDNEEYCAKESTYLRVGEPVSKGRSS
# Assay: uncleaved DNA left, log2 of reads against the no-enzyme library (log2 ratio); higher = less cleavage (more negative = more Rep cleavage of the k-mer); sequences stand for … in CTCGTCCG…ACCGGAGA
# Protocol: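 A pool of 90-nt single-stranded DNAs with seven random bases just before the constant AC of the nick site (name = the seven bases) was cut by 3 µM recombinant His6-SUMO-tagged Rep nickase domain (300 nM DNA, 50 mM HEPES pH 8.0, 50 mM NaCl, 1 mM MnCl2, 1 h, 37 °C, three replicates). Uncut DNA was amplified and sequenced.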
row,Sequence,uncleaved DNA left (log2)
1,AGATTCT,-2.5
2,TCTCCAG,-0.0684
3,TGTGGCT,0.0466
4,CGTGCTA,0.0857
5,TACTCAA,-0.0128
6,CCGATCC,-0.00638
7,CTTTACG,0.0699
8,GCAATGC,-0.0406
9,TCCCATT,-0.0874
10,CTTGGAA,0.0302
11,GAGACTT,-0.0693
12,GCGGTTC,-0.013
13,CTATCCT,-1.56
14,TACATTA,-0.0423
15,GTTCCTA,-0.0588
16,CAGCAGT,0.222
17,GCAAGCG,-0.0349
18,AATCCAC,-0.0876
19,TTTAACA,-0.0197
20,CATCATG,0.0131

row,Sequence,uncleaved DNA left (log2)
1,AAAGGGC,0.0723
2,CCGTCTT,-1.85
3,GCTCCCT,0.0546
4,GGTTTAG,-0.0273
5,CCGTCTA,-0.235
6,TGAACCG,-0.123
7,TGCTATA,-0.0248
8,CTCCGCG,-0.0288
9,GCGTAGA,0.0927
10,TCTAGAG,0.00182
11,CAAAGAC,0.0332
12,TCGGTAA,-0.108
13,TTTGGGC,-0.0425
14,GTGGGCG,-0.0666
15,GTCTGCA,-0.056
16,TTTGCCA,0.047
17,ACGACCG,-0.1
18,GTATCGC,0.0069
19,ATTCCTT,-0.575
20,GCTAACC,-0.147
